Experimental data from the supplement of paper PMC12067230.
The data scatter; read single values as rough.

Experiment: amyloid nucleation score relative to library mode (yeast Sup35 reporter selection) (log enrichment difference); higher = more amyloid nucleation; sequences are the first 22 residues of the Bri2 peptide extended by up to 12 random residues
Settings: random library (experiment): 1;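 active = nucleation score significantly above 0 at FDR 0.05; inactive = not significantly above 0 or absent from output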
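Also: [psi-pin-] Saccharomyces cerevisiae expressing SupN fusions, induced by 100 µM Cu2SO4, selected 7 d at 30 °C without adenine and uracil, scored by deep sequencing of output versus input.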

Sequence	amyloid nucleation score
EASNCFAIRHFENKFAVETLICVPRRFALSVVGA	inactive
EASNCFAIRHFENKFAVETLICCLLSSWRWGFAV	inactive
EASNCFAIRHFENKFAVETLICNIRSVCEWQSLH	3.65
EASNCFAIRHFENKFAVETLICVKCGCCGKVEWG	5.67
EASNCFAIRHFENKFAVETLICLSSSYWSVNLLT	inactive
EASNCFAIRHFENKFAVETLICRCNVMIDHTFWV	inactive
EASNCFAIRHFENKFAVETLICREIAHDLWFYW	inactive
EASNCFAIRHFENKFAVETLICKL	5.48
EASNCFAIRHFENKFAVETLICRRVVWWLLNPLA	inactive
EASNCFAIRHFENKFAVETLICREFCDVIADWSS	inactive
EASNCFAIRHFENKFAVETLICFFAHRQRSRRCD	1.75
EASNCFAIRHFENKFAVETLICGIYKTYRDVP	2.92
EASNCFAIRHFENKFAVETLICATS	inactive
EASNCFAIRHFENKFAVETLICWDVRYLIVCNVG	0.218
EASNCFAIRHFENKFAVETLICCLLRTMFCGTDG	inactive
EASNCFAIRHFENKFAVETLICVASMEWLNWLVL	inactive
EASNCFAIRHFENKFAVETLICTAGM	inactive
EASNCFAIRHFENKFAVETLICRHSTYHH	inactive
EASNCFAIRHFENKFAVETLICHSRASFLVLCGT	inactive

Sequence	amyloid nucleation score
EASNCFAIRHFENKFAVETLICGTLV	inactive
EASNCFAIRHFENKFAVETLICPEWPLVGAGCWS	inactive
EASNCFAIRHFENKFAVETLICLTKWGTQLSTRM	inactive
EASNCFAIRHFENKFAVETLICRFWDSGRRTDRA	inactive
EASNCFAIRHFENKFAVETLICVLKYFISVGLRE	inactive
EASNCFAIRHFENKFAVETLICECVMCVPRHGSL	5.18
EASNCFAIRHFENKFAVETLICRYGLDGFHNVQT	inactive
EASNCFAIRHFENKFAVETLICWMVWA	inactive
EASNCFAIRHFENKFAVETLICTTKYRM	2.72
EASNCFAIRHFENKFAVETLICLGALAWHQWMMI	1.58
EASNCFAIRHFENKFAVETLICATWEMAWSWVES	inactive
EASNCFAIRHFENKFAVETLICFWFCGIEGEKWG	-0.0572
EASNCFAIRHFENKFAVETLICLDPCALLMWQGS	5.8
EASNCFAIRHFENKFAVETLICLWGKRGWQRQSP	inactive
EASNCFAIRHFENKFAVETLICYYVKNGLTYKLP	inactive
EASNCFAIRHFENKFAVETLICVDRSSRASGNLR	2.51
EASNCFAIRHFENKFAVETLICFWCRHYVVFE	inactive
EASNCFAIRHFENKFAVETLICTRLNSYITFSSV	inactive
EASNCFAIRHFENKFAVETLICPWCGP	3.36

Same assay, conditions: random library (experiment): 2

Sequence	amyloid nucleation score
EASNCFAIRHFENKFAVETLICMRVNHDATICAW	inactive
EASNCFAIRHFENKFAVETLICLSKFSLFPCSRE	5.33
EASNCFAIRHFENKFAVETLICMTALHSFWRVRC	inactive
EASNCFAIRHFENKFAVETLICRYTWMV	inactive
EASNCFAIRHFENKFAVETLICLFRFSYIGSWV	inactive
EASNCFAIRHFENKFAVETLICFVLTSHLYWSGM	inactive
EASNCFAIRHFENKFAVETLICLPGSCSSSWSIA	6.44
EASNCFAIRHFENKFAVETLICFFISINLSCSVW	inactive
EASNCFAIRHFENKFAVETLICYCDWYAGRTCLG	4.2
EASNCFAIRHFENKFAVETLICGSM	inactive
EASNCFAIRHFENKFAVETLICYWNSSDQLNSI	6.15
EASNCFAIRHFENKFAVETLICDEAFGVEGSVQV	inactive
EASNCFAIRHFENKFAVETLICMNRWYMYTCWCF	inactive
EASNCFAIRHFENKFAVETLICYQRWERYHVWRR	inactive
EASNCFAIRHFENKFAVETLICGSSIGNMRFFTC	5.72
EASNCFAIRHFENKFAVETLICGSPYVRYLAPGH	inactive
EASNCFAIRHFENKFAVETLICFRVLYLFSYGIC	inactive
EASNCFAIRHFENKFAVETLICVTSSRIELELCN	inactive
EASNCFAIRHFENKFAVETLICNFRTE	7.53
EASNCFAIRHFENKFAVETLICVAYCCIKARSVT	3.78
EASNCFAIRHFENKFAVETLICLFALLCIFYAAY	5.78
EASNCFAIRHFENKFAVETLICLGRFGCFIHVW	inactive
EASNCFAIRHFENKFAVETLICGFRKLR	inactive
EASNCFAIRHFENKFAVETLICISSMFYVFLGIL	inactive
EASNCFAIRHFENKFAVETLICDDYERKSICHMW	-0.0488

Same assay, conditions: random library (experiment): 3

Sequence	amyloid nucleation score
EASNCFAIRHFENKFAVETLICIMITEVASGRVR	-0.203
EASNCFAIRHFENKFAVETLICLPWRKH	inactive
EASNCFAIRHFENKFAVETLICMSPEVVE	inactive
EASNCFAIRHFENKFAVETLICEFVKDDAEQRRH	1.31
EASNCFAIRHFENKFAVETLICVHSCANKCNFHN	6.76
EASNCFAIRHFENKFAVETLICFDLSTIFDVRRL	7.57
EASNCFAIRHFENKFAVETLICCKVPSSLRVMIG	1.06
EASNCFAIRHFENKFAVETLICWFQ	5.65
EASNCFAIRHFENKFAVETLICALSRSCVEGLGV	1.34
EASNCFAIRHFENKFAVETLICHDNRSVRSVSHM	inactive
EASNCFAIRHFENKFAVETLICAPSKAYVVGV	inactive
EASNCFAIRHFENKFAVETLICWFQLAESRVVTS	inactive
EASNCFAIRHFENKFAVETLICGWAVDRPGQDVQ	inactive
EASNCFAIRHFENKFAVETLICGFVEWLQQAVYR	inactive
EASNCFAIRHFENKFAVETLICTGTLQKGMRNAT	inactive
EASNCFAIRHFENKFAVETLICNRRY	inactive
EASNCFAIRHFENKFAVETLICFWYIY	0.582
EASNCFAIRHFENKFAVETLICPGSFVHAFVRFR	inactive
EASNCFAIRHFENKFAVETLICMSWLKMRGLIFT	inactive
EASNCFAIRHFENKFAVETLICYRLDRVVHKVFR	inactive
EASNCFAIRHFENKFAVETLICPVSNYVRVLTGM	inactive
EASNCFAIRHFENKFAVETLICLTLMSSMMCV	inactive
EASNCFAIRHFENKFAVETLICQSEGVMWYGPVS	inactive
